In PubChem BioAssay AID761 (NMMLSC, 2007):
Screen size: about 190,000 compounds; about 400 (0.21%) were called active. This list was built around the results that the source calls inconclusive (neither active nor inactive); the mix of calls is not that of the screen.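 How the source made its calls: active means percent activity GTP binding at least 20 points away from the 100% baseline, either down as inhibitor or up as activator; inconclusive means compound flagged as likely green fluorescent from well-wide comparison; inactive means the rest.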

target: Cell division control protein 42 homolog (Homo sapiens) (UniProt P60953); assay: wildtype Cdc42 fluorescent GTP binding changes, either direction – biochemical, multiplex bead flow cytometry, Bodipy-GTP, primary screen (AID 761); settings: GST-Cdc42 beads, at 10 µM, actives lie on both sides;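 further: median bead fluorescence of bound Bodipy-FL-GTP at 100 nM; 0% = excess unlabeled GTP control and 100% = no compound control; below 100% means less GTP binding so inhibitor and above means activator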
UniProt P60953, sequence (P60953 whole entry, looked up): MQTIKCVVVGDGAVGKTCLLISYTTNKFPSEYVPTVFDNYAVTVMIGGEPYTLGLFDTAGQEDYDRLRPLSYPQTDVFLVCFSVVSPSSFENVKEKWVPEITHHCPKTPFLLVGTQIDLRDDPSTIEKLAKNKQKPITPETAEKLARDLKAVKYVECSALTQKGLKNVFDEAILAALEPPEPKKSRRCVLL

Row | Compound | percent activity (GTP binding)
1 | FC(F)(F)c1ccc(Cl)c(NC(=S)N/N=C/c2ccccc2C(F)(F)F)c1 | inconclusive: 93%
2 | O=C(Nc1nnc(-c2cccs2)o1)c1cc(-c2ccccc2)nc2ccccc12 | inactive: 93%
3 | Cc1nonc1CN(C)C(=O)CC1C(=O)NCCN1Cc1cccc(C(F)(F)F)c1 (stereo not drawn) | inactive: 95%
4 | CC(=O)OC(C(=O)n1nc(C)cc1C)c1ccccc1 (stereo not drawn) | inconclusive: 95%
5 | CS(=O)(=O)Nc1ccccc1C(=O)O | inactive: 102%
6 | Cc1ccc(OCCn2cnc3cc([N+](=O)[O-])ccc3c2=O)cc1 | active: 79%
7 | CC(=O)c1cnc(-c2ccccn2)s1 | inconclusive: 95%
8 | c1ccc(-n2nnnc2Sc2n[nH]c(-c3ccncc3)n2)cc1 | inconclusive: 95%
9 | COC(=O)c1sccc1-c1ccc(C(N)=O)o1 | inconclusive: 95%
10 | Cn1cc(C(=O)NC2CCCCC2)c(=O)c2cc(S(=O)(=O)N3CCCC3)ccc21 | inconclusive: 106%
11 | CCOc1cc2c(cc1/C=C1/NC(=O)N(CC(=O)OC)C1=O)OCO2 | inconclusive: 96%
12 | O=C(COc1cc(O)c2c(=O)cc(-c3ccccc3)oc2c1)c1ccc(F)cc1 | inconclusive: 97%
13 | O=[N+]([O-])c1ccc(N2CCN(S(=O)(=O)c3ccccc3)CC2)cc1NCC1CCCO1 (stereo not drawn) | inconclusive: 103%
14 | O=c1c2nccnc2[nH]c(=S)n1Cc1ccccc1Cl | inconclusive: 94%
15 | C=CCNC(=O)c1ccccc1NC(=O)c1ccccc1SC | inconclusive: 94%
16 | O=C(Nc1nc2ccc(Cl)cc2s1)c1ccc(Br)o1 | inconclusive: 105%
17 | CC(=O)c1ccc(NC(=O)C(C)n2nc(-c3ccccc3)c3cc(Cl)ccc32)cc1 (stereo not drawn) | inactive: 100%
18 | O=C(NCc1ccccc1)c1ccc2c(c1)C(=O)N(Cc1ccncc1)C2=O | inconclusive: 107%
19 | COc1cc(CNC2CCCC2)cc(Cl)c1OCc1ccccc1F | inconclusive: 100%
20 | Brc1cc(Br)c2nc(-c3ccc(N4CCOCC4)cc3)ccc2c1 | inconclusive: 88%
21 | O=C(NC(Cc1ccccc1)C(=O)O)/C(=C/c1ccco1)NC(=O)c1cccc(Br)c1 (stereo not drawn) | inconclusive: 93%
22 | O=C(N/N=C/c1ccc(Cl)c([N+](=O)[O-])c1)c1cnccn1 | inconclusive: 101%
23 | CCOC(=O)c1ccc(NC=C2C(=O)OC3(CCCCC3)OC2=O)cc1 | inconclusive: 104%
24 | Cc1ccc(C(=O)Nc2oc(-c3ccccc3)cc2C#N)cc1 | inconclusive: 84%

Row | Compound | percent activity (GTP binding)
25 | CCN(CC)S(=O)(=O)c1ccc(OC)c(NC(=O)c2cc(C)on2)c1 | inconclusive: 95%
26 | O=c1c2ccccc2nc2ccc(NCc3cccs3)nn12 | active: 76%
27 | COC(=O)c1cc(NC(=O)C2CC(=O)NC(=NCc3ccc(OC)cc3)S2)cc(C(=O)OC)c1 (stereo not drawn) | inconclusive: 96%
28 | COCCn1c(SCC(=O)NCC2CCCO2)nc2c(c1=O)SC(C)C2 (stereo not drawn) | inactive: 100%
29 | CCOc1ccc(NC(=O)COc2nsnc2N2CCCCC2)cc1 | inconclusive: 105%
30 | CCOc1ccc(N(CC(=O)Nc2ccc(OC)cc2)S(=O)(=O)c2c(C)noc2C)cc1 | inconclusive: 104%
31 | COc1cccc(N=c2oc3ccc(OC)cc3cc2-c2nc3ccccc3[nH]2)c1 | inconclusive: 87%
32 | c1ccc(-c2cnc(-c3cccnc3)o2)cc1 | inconclusive: 95%
33 | CC1CCCC(C)N1C(=O)Cn1c(SCC(=O)NCc2ccc3c(c2)OCO3)nc2ccccc21 (stereo not drawn) | inconclusive: 102%
34 | N#Cc1ccccc1OCC(=O)OCC(=O)N1CCN(C(=O)c2ccco2)CC1 | inactive: 98%
35 | CCOC(=O)CCCCC(=O)c1[nH]c(=O)[nH]c1CSc1nnc2c3cc(Br)ccc3n(C)c2n1 | inconclusive: 80%
36 | CC1=C(C(=O)Nc2ccccc2)C(c2cccs2)NC(=O)N1 (stereo not drawn) | inactive: 104%
37 | CCCOc1ccc(Oc2cc(C)nc(SC)n2)nn1 | inconclusive: 106%
38 | CCN(CC)c1ccc(/C=C(/C#N)c2nc3ccc(C)cc3[nH]2)c(OC(C)C)c1 | inconclusive: 117%
39 | O=C(CSc1nncs1)NCCCc1ccccc1 | inactive: 97%
40 | CC(C)(C)C1CCc2onc(C(=O)NC3CCCC3)c2C1 (stereo not drawn) | inactive: 105%
41 | O=C(CCNC(=O)c1ccccc1)Oc1ccc([N+](=O)[O-])cc1 | inconclusive: 101%
42 | COc1ccccc1-c1nnc(SCC(=O)Nc2nc(-c3ccccc3)cs2)n1C | inconclusive: 88%
43 | c1ccc(CNC2=NCCC2)nc1 | inconclusive: 108%
44 | COC(=O)c1c(NC(=O)/C=C/C(=O)O)sc(C)c1-c1ccc(C)c(C)c1 | inconclusive: 92%
45 | O=C(NNC(=S)NCc1ccc(Cl)cc1)c1ccc(Br)o1 | active: 78%
46 | Cc1occc1C(=O)NCc1ccccn1 | inconclusive: 108%
47 | Cc1nn(-c2ccc(F)cc2)c(Cl)c1/C=C(\CCC(=O)O)c1nc2ccccc2s1 | active: 68%
48 | COC(=O)CSc1ccc2nnc(-c3ccc(F)cc3)n2n1 | inconclusive: 113%

Row | Compound | percent activity (GTP binding)
49 | COc1ccc(Cn2c(O)c(/C=N/NC(=O)c3cccnc3)c3ccccc3c2=O)cc1 | active: 68%
50 | Cn1c(N)c(C(=O)NCc2ccccc2)sc1=S | inconclusive: 103%
51 | O=C(CN1CCOCC1)Nc1ccccc1NC(=O)C1CCN(c2ncccn2)CC1 | inconclusive: 100%
52 | O=C(O)c1cccc(NC(=S)N/N=C/c2cccc(O)c2)c1 | inconclusive: 91%
53 | COc1cccc(-c2cc(C(F)(F)F)nc(-n3ccc([N+](=O)[O-])n3)n2)c1 | inconclusive: 95%
54 | CCOCC(=O)Nc1nnc(C2CCCCC2)s1 | inconclusive: 101%
55 | CC(C)(C)NC(=O)CSc1nc(N)c(-c2ccccc2)c(=O)[nH]1 | inconclusive: 96%
56 | CCOC(=O)c1cnc(-n2[nH]c(C)cc2=O)[nH]c1=O | inconclusive: 91%
57 | Cc1csc(N(C(=O)Cc2ccccc2F)c2ccccc2)n1 | inconclusive: 100%
58 | COc1ccc(NC(=O)CSc2nnc(C3CC3)n2N)cc1 | inconclusive: 106%
59 | COc1ccc(/C=C/c2nc3cc(-c4ccccc4)ccc3o2)cc1O | inconclusive: 94%
60 | COc1cc(NC(=O)C2CCN(S(=O)(=O)c3cnc[nH]3)CC2)cc(OC)c1OC | inconclusive: 105%
61 | O=C(CCNC(=O)c1ccccc1)N=Nc1c(O)[nH]c2ccccc12 | inconclusive: 92%
62 | O=C(CCCCn1c(=S)[nH]c2ccsc2c1=O)NCc1ccc2c(c1)OCO2 | inconclusive: 93%
63 | COc1cccc(NC(=O)c2ccc3c(SCC(=O)O)c4c(nc3c2)CCCC4)c1 | inconclusive: 83%
64 | O=C(C[n+]1ccccc1)N/N=C/c1ccc(F)cc1 | inactive: 96%
65 | O=C(c1cc2nc(-c3ccc(Cl)cc3)cc(C(F)(F)F)n2n1)N1CCOCC1 | inactive: 96%
66 | COc1cc(N2CCCC2)c(OC)cc1/C=C(/C#N)c1cccc(F)c1 | inconclusive: 155%
67 | Cc1c(C(c2ccccc2O)c2c(C)n(C)n(-c3ccccc3)c2=O)c(=O)n(-c2ccccc2)n1C | inconclusive: 91%
68 | CCCCCC1CCC(c2n[nH]c(=S)n2C)CC1 (stereo not drawn) | inactive: 90%
69 | O=C(COC(=O)c1ccc2c(c1[N+](=O)[O-])C(=O)c1ccccc1C2=O)NC1CC1 | active: 73%
70 | Cc1cc2cc(C)c(NCCNC(=O)c3ccccc3Cl)nc2cc1C | inconclusive: 93%
71 | COc1ccc(/C=C/C(=O)NC(=S)Nc2cc3oc4ccccc4c3cc2OC)cc1 | inconclusive: 101%
72 | Oc1c(C(Nc2nccs2)c2ccc(C(F)(F)F)cc2)ccc2cccnc12 (stereo not drawn) | inactive: 98%

Row | Compound | percent activity (GTP binding)
73 | COC(=O)c1c(NC(=O)C2CC2)sc(C(=O)Nc2ccccc2)c1C | inconclusive: 95%
74 | CC(Nc1cc(N2CCN(S(=O)(=O)N(C)C)CC2)ccc1[N+](=O)[O-])c1ccccc1 (stereo not drawn) | inconclusive: 95%
75 | Cc1ccc(Nc2nc(N)c(C#N)c(CC#N)c2C#N)cc1 | inconclusive: 52%
76 | OC1CCCN(c2ncnc3c2nnn3Cc2c(F)cccc2Cl)C1 (stereo not drawn) | inactive: 94%
77 | O=C(NC(NC(=S)Nc1ccccc1C(=O)O)C(Cl)(Cl)Cl)c1ccco1 (stereo not drawn) | inconclusive: 89%
78 | CCOCCOC(NC(=O)c1ccccc1)(C(F)(F)F)C(F)(F)F | inactive: 100%
79 | CC(C)(C)NC(=O)C1CCN(S(=O)(=O)c2cccc(C(F)(F)F)c2)CC1 | inactive: 95%
80 | C=CCNC(=O)COC(=O)c1ccc(C)c(NC(=O)c2ccco2)c1 | inconclusive: 90%
81 | CCOc1nnc(C)c2c(C)n(-c3cccc(Cl)c3)nc12 | inconclusive: 158%
82 | CCN(CC)CCCN(Cc1cc2cc(OC)c(OC)cc2[nH]c1=O)C(=O)Nc1ccccc1 | inconclusive: 104%
83 | CC(=O)OC(C(=O)NC1CCCCC1)c1ccc(Cl)c(Cl)c1 (stereo not drawn) | active: 35%
84 | CN1C(=O)NC(c2ccc(O)cc2)C2=C1CN(c1cccc3ccccc13)C2=O (stereo not drawn) | inconclusive: 93%
85 | COC(=O)C(=C/C(C)=C/c1cccnc1)C(=O)OC | inactive: 97%
86 | CC1CCN(c2ncccc2C(=O)O)CC1 | active: 141% [activator]
87 | CCCc1cc(=O)oc2cc(C)cc(OC(=O)c3ccco3)c12 | inconclusive: 102%
88 | Cc1nn(Cc2ccccc2Cl)c(Cl)c1C(=O)NCCc1ccccc1 | inconclusive: 98%
89 | CC(C)(C)C(=O)Cn1ncc(Br)c(Br)c1=O | inactive: 97%
90 | COC(=O)NCc1ccc(CNC(=O)OC)cc1 | inconclusive: 107%
91 | CCOC(=O)C(C)Sc1nc(=O)n2cc(C)ccc2n1 (stereo not drawn) | inconclusive: 96%
92 | COc1ccc(CCn2c(C(C)C)nc3c(c(=O)c4ccccc4n3C)c2=O)cc1 | inactive: 99%
93 | Cc1cccc(-c2ncc(CN3CCN(CCC(C)C)C(CCO)C3)cn2)c1 (stereo not drawn) | inactive: 94%
